These results are taken from article PMC6919601, “Identification of Plasmodium dipeptidyl aminopeptidase allosteric inhibitors by high throughput screening” (PLoS ONE, 2019).

Each structure is given as a SMILES string. Several values for one entry are separate records, joined by “and”; a condition that tells them apart may be missing. Equal values may be shown once. About 230 (0.21%) of roughly 110,000 compounds showed an effect of 50% or more. The list shows a part of the results.
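Also: 30 min substrate incubation versus DMSO and 10 µM JCP410 controls.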

This experiment deals with DPAP1 (Plasmodium falciparum, UniProt Q8IIJ9). The experiment in a line: primary screen, percent inhibition; read by cleavage of a fluorogenic dipeptide substrate; higher = more effect of the substance. Also noted: species or system P. falciparum D10 trophozoite lysates; single well.
Sequence of DPAP1 (Q8IIJ9 whole entry, looked up): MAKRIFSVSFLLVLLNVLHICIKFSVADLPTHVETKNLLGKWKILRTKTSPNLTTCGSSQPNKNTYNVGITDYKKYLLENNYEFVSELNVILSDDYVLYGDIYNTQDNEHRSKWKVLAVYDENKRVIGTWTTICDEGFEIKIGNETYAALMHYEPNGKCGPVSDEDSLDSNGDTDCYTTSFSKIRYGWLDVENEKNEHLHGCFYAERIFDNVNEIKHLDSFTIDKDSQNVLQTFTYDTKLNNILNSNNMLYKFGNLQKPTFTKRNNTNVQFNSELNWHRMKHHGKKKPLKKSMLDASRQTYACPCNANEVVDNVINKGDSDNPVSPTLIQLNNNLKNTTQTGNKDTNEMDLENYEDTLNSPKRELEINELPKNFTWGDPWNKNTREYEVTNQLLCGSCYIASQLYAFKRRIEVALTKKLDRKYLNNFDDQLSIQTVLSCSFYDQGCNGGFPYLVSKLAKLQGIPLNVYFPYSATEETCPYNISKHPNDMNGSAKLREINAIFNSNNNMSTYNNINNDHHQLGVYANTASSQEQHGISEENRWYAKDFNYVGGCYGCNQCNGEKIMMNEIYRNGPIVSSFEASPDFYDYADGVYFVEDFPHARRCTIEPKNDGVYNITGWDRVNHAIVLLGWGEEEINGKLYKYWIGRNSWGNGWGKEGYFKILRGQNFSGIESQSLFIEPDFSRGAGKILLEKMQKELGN
`O=C1NC(=S)N/C1=C/c1cccc(O)c1`: the “% Inhibition @ 10 uM” value is 0.345%.
The same measure for `Cc1nnc(N2CCCC(C(=O)NCc3cccnc3)C2)c2nn(-c3ccc(Cl)cc3)c(C)c12` (stereo not shown): 10.1%; for `CCOC(=O)C1=C(NC(=O)c2ccc(C)cc2)S/C(=C\c2cc3c(cc2OC)OCO3)C1=O`: -1.92%.
Consider `CCC1CCCCN1CCNC(=O)C1CCN(S(=O)(=O)c2c(C)noc2C)CC1` (stereo not shown), for which the “% Inhibition @ 10 uM” value was -0.148%.
With `Cc1cc(C)n2nc(SC(C)C(=O)NCc3ccc4c(c3)OCO4)nc2n1` (stereo not shown), the “% Inhibition @ 10 uM” value is on record as -2.26%.
On to `CCn1c(/C=C/c2ccc(Cl)cc2)nc2ccccc21`, for which the “% Inhibition @ 10 uM” value was -5.92%.
On to `O=C(NCc1ccc(F)cc1)C1CC(=O)N(c2ccc(F)cc2)C1` (stereo not shown), for which the “% Inhibition @ 10 uM” value is 1.34%.
With `O=C1C=C(c2ccc(Cl)cc2)C(=O)c2ccccc21`, the “% Inhibition @ 10 uM” value was found to be 2.13%.
In the case of `COc1ccc(C2C3=C(O)CC(C)(C)CC3=Nc3ccccc3N2C(C)=O)cc1` (stereo not shown), the “% Inhibition @ 10 uM” value is given as -7.54%.
Regarding `COc1ccc(CC(=O)O/N=C(\N)c2ccc(C)cc2)cc1OC`, the “% Inhibition @ 10 uM” value was -3.28%.
`O=Cc1c[nH]c2ccc(S(=O)(=O)N3CCN(Cc4ccccc4)CC3)cc12`: the “% Inhibition @ 10 uM” value was 0.718%.
The same measure for `COc1ccc(/C=C2N=C(/C=C/c3ccccc3)OC/2=O)cc1OC`: 2.77%; for `O=C1/C(=C/c2ccc3c(c2)OCO3)CC/C1=C\c1ccc2c(c1)OCO2`: 2.94%.
In the case of `COc1ccc(Br)cc1C1C(C#N)=C(N)Oc2cc(N)ccc21` (stereo not shown), the “% Inhibition @ 10 uM” value came out at 1.4%.
Turning to `Cc1ccc(-n2c(SCCc3ccccc3)nc3c(c2=O)C2(CCCC2)Cc2ccccc2-3)cc1`, the “% Inhibition @ 10 uM” value was found to be 3.01%.
With `O=C(OCCNc1c(F)c(F)nc(F)c1F)c1ccccc1`, the “% Inhibition @ 10 uM” value amounted to 6.82%.
On to `Cc1[nH]nc2c1C(c1cc(Br)cs1)C(C#N)=C(N)O2` (stereo not shown), for which the “% Inhibition @ 10 uM” value was determined as 4.8%.
`C#CCn1c(CCCO)nc2ccccc21`: the “% Inhibition @ 10 uM” value is recorded as 1.12%.
As for `CCOC(=O)c1c(NC(=O)C#Cc2ccccc2)sc2c1CCC2`, the “% Inhibition @ 10 uM” value is listed as -2.13%.
For the compound `CCN1CCN(C(=O)c2ccc(-c3nc(CS(=O)(=O)c4ccc(C)cc4)c(C)o3)cc2)CC1`, the “% Inhibition @ 10 uM” value amounted to 8.46%.
Regarding `Cc1cc2c(c(=O)n1Cc1cccnc1)C(c1ccc(Cl)cc1)C(C#N)=C(N)O2` (stereo not shown), the “% Inhibition @ 10 uM” value is on record as 0.343%.
For the compound `COCCN1C(=O)c2ccccc2C(C(=O)NCc2ccc(F)cc2)C1c1cccs1` (stereo not shown), the “% Inhibition @ 10 uM” value came out at 3.54%.
As to `CC1CCC(NC(=O)C(C)n2sc3ccccc3c2=O)CC1` (stereo not shown), the “% Inhibition @ 10 uM” value is reported as -8.41%.
As for `COc1ccc(S(=O)(=O)NCC(=O)Nc2ccc3c(c2)OCO3)cc1`, the “% Inhibition @ 10 uM” value was determined as 0.323%.
For the compound `NS(=O)(=O)c1ccc(C23CC4CC(CC(C4)C2)C3)cc1`, the “% Inhibition @ 10 uM” value is given as -2.66%.
For `CC1(C)CC2=NC3=C(C(=O)CC(C)(C)C3)C(c3ccc(C(F)(F)F)cc3)C2=C(O)C1` (stereo not shown), the “% Inhibition @ 10 uM” value was found to be 2.76%.
The same measure for `Cc1cc(C)n(-c2ccc(C(=O)Nc3cccnc3)cc2)n1`: -1.43%; for `COc1cc2c(cc1OC)C1=C(C#N)CN(c3ccc(Br)cc3)CN1CC2`: 2.68%; for `O=C1c2cccc3cccc(c23)C(=O)N1c1ccc2c(c1)OCO2`: -1.2%.
As for `COc1ccc(CNc2c3c(nc4nncn24)CCC3)cc1`, the “% Inhibition @ 10 uM” value is reported as -5.33%.
As for `COc1ccccc1CN1CC(C(=O)NC2CCCCC2)CC1=O` (stereo not shown), the “% Inhibition @ 10 uM” value is 0.514%.
The figure for `O=C(c1ccc(C(=O)N2CCCC2)cc1)N1CCCC1` is 3.01%.
For the compound `O=C(Nc1cccc(Cl)c1)c1ccc(F)c(S(=O)(=O)N2CCOCC2)c1`, the “% Inhibition @ 10 uM” value is recorded as -9.4%.
On to `O=C(C1c2ccccc2C(=O)N(C2CCCC2)C1c1cccs1)N1CCN(Cc2ccccc2)CC1` (stereo not shown), for which the “% Inhibition @ 10 uM” value is reported as -7.52%.
Regarding `CCOc1cccc2cc(-c3csc(NC(=O)CCC(=O)NCCCN4CCCC4)n3)c(=O)oc12`, the “% Inhibition @ 10 uM” value worked out at 9.17%.
The same measure for `N#CC1=C(N)Oc2c(c(=O)oc3ccccc23)C1c1ccccc1OCc1ccccc1Cl` (stereo not shown): 10.8%; for `O=C(OC[C@@H]1CCCN2CCCC[C@H]12)c1cccc(Br)c1`: -3.82% and -4.01%.
Take `CCCCC(=O)NC1(C(F)(F)F)NC(=O)N(C(C)c2ccccc2)C1=O` (stereo not shown): the “% Inhibition @ 10 uM” value worked out at 0.221%.
As to `O=C(Nc1ccc(N2CCOCC2)cc1)c1sc2ccccc2c1Cl`, the “% Inhibition @ 10 uM” value is on record as -4.03%.
In the case of `CC1CC(C)CN(CCCn2cnc3c4ccccc4nc-3c2O)C1` (stereo not shown), the “% Inhibition @ 10 uM” value is listed as -0.0235%.
As for `CC(C)C(NC(=O)c1ccc(N(C)S(C)(=O)=O)cc1)C(C)C`, the “% Inhibition @ 10 uM” value is recorded as 2.48%.
For `Cc1ccc(Nc2nc(-c3ccccc3)cs2)cc1`, the “% Inhibition @ 10 uM” value is given as -5.44%.
On to `COc1ccc(CCNC(=O)c2nnc(Cc3ccc(Cl)cc3Cl)o2)cc1OC`, for which the “% Inhibition @ 10 uM” value worked out at 10.5%.
With `CCOC(=O)N1CCN(C(=O)c2ccc3c(c2)sc2nc(-c4ccc(F)cc4)cn23)CC1`, the “% Inhibition @ 10 uM” value is recorded as -5.15%.
Regarding `O=C1N=C(N2CCCC2)S/C1=C/c1cccc(Cl)c1`, the “% Inhibition @ 10 uM” value amounted to 3.53%.
Regarding `C=CCNC(=O)c1ccccc1NC(=O)CN(c1cc(C(F)(F)F)ccc1Cl)S(C)(=O)=O`, the “% Inhibition @ 10 uM” value was -8.58%.
With `Cc1ccc(CCN2CC(C(=O)NC(C)C)CC2=O)cc1` (stereo not shown), the “% Inhibition @ 10 uM” value came out at 1.62%.
As for `Cc1ccc(OCC(=O)N2CCN(c3ccccn3)CC2)c(Br)c1`, the “% Inhibition @ 10 uM” value is on record as -5.08%.
`Cc1cc(O)nc(Nc2nc(C)c3cccc(C)c3n2)n1`: the “% Inhibition @ 10 uM” value is 7.54%.
For the compound `Cc1cc(C)nc(Nc2nc(-c3ccc(O)c(O)c3)cs2)n1`, the “% Inhibition @ 10 uM” value is listed as 0.627%.
With `Cc1ccc(S(=O)Cc2ccc(C(=O)NCc3ccco3)o2)cc1` (stereo not shown), the “% Inhibition @ 10 uM” value is recorded as -3.09%.
Regarding `CC(CCN1CCC(C(N)=O)CC1)c1ccccc1` (stereo not shown), the “% Inhibition @ 10 uM” value was -0.274%.
With `CCOC(=O)c1conc1-c1ccc(OCC)cc1`, the “% Inhibition @ 10 uM” value was -2.18%.
The same measure for `Cc1ccc(C2=CC(c3ccccc3OC(F)F)n3ncnc3N2)cc1` (stereo not shown): -8.88%; for `CCCC/N=c1\sc(C(=O)OC)cc(=O)n1CCCC`: -1.7%.
Consider `Cc1nc2ncnn2c(C)c1CCC(=O)NC(C)CCc1ccccc1` (stereo not shown), for which the “% Inhibition @ 10 uM” value is recorded as -0.465%.
As to `O=[N+]([O-])c1ccc(CN2CCCCCC2)s1`, the “% Inhibition @ 10 uM” value is given as 4.67%.
Consider `CC(C)(C)c1ccc(C2=N/C(=C\c3ccccc3F)C(=O)O2)cc1`, for which the “% Inhibition @ 10 uM” value is recorded as -8.77%.
On to `CC(C)OCCCNC(=O)c1csc2c1CCCCC2`, for which the “% Inhibition @ 10 uM” value was -5.05%.
On to `Cc1nn(-c2ccccc2)c(C)c1C(=O)N1CCN(C23CC4CC(CC(C4)C2)C3)CC1`, for which the “% Inhibition @ 10 uM” value is 3.24%.
`O=C(CC1Sc2ccccc2NC1=O)Nc1cccc(Cl)c1` (stereo not shown): the “% Inhibition @ 10 uM” value is listed as -2.56%.
The same measure for `COC(=O)CCN1CCN(c2ccc(Cl)cc2)CC1`: -8.85%.
As for `Cc1cccc(Nc2nc(-c3ccncc3)cs2)c1`, the “% Inhibition @ 10 uM” value was determined as 0.345%.
The figure for `N#CC1(c2ccc(OCc3ccccc3)cc2)CCC(=O)N1c1ccccc1` (stereo not shown) is -3.83%; for `CC(=O)NC(C)Cc1c(C(=O)O)[nH]c2ccccc12` (stereo not shown) it is 0.343%.
The same measure for `CCO/C(O)=C1\C(CC)=NC2=C(C(=O)CCC2)C1c1ccc(OC)cc1OC` (stereo not shown): -6.74%; for `COc1cccc(OC)c1C(=O)N1CCc2ccccc2C1`: -0.636%; for `COc1ccc(/C=C2/N=C(c3cccc4ccccc34)OC2=O)cc1OC`: 0.997%.
For `CCc1ccc(CNc2nc(N)n(-c3ccccc3)n2)cc1`, the “% Inhibition @ 10 uM” value is recorded as 1.83%.
The figure for `Cc1nc2cc(-c3ccccc3)nn2c(C)c1CC(=O)O` is 2.39%; for `CCOc1ccc(CC(=O)NCc2ccccc2)cc1OCC` it is -0.473%.
For the compound `Cc1ccnc(NS(=O)(=O)c2ccc(NC(=O)c3c(-c4ccccc4)noc3C)cc2)n1`, the “% Inhibition @ 10 uM” value is recorded as 5.39%.
As for `C=CCOc1ccc(/C=C2\NC(=O)N(Cc3ccc(Cl)cc3)C2=O)cc1`, the “% Inhibition @ 10 uM” value is listed as 3.8%.
For the compound `Cc1ccc(-c2nc3cc(N)ccc3o2)cc1C`, the “% Inhibition @ 10 uM” value is reported as 0.35%.
For `COc1ccc(-c2cc(C3CC3)nc(N)c2C#N)cc1`, the “% Inhibition @ 10 uM” value is 4.51%.
The figure for `CC1=CC(C)C2(COC(c3ccc[n+](C)c3)OC2)C(C)C1` (stereo not shown) is -1.33%; for `COc1ccc(OCC(=O)N2N=C(C)CC2(O)C(F)(F)F)cc1` (stereo not shown) it is -2.32%.
The figure for `COC(C(=O)NCc1cccnc1)c1ccccc1` (stereo not shown) is -1.02%.
Consider `CCS(=O)(=O)c1nc(S(=O)(=O)c2ccc(C)cc2)c(NCCCn2ccnc2)s1`, for which the “% Inhibition @ 10 uM” value is on record as -2.25%.
With `CC(C)c1ccc(NC(=O)C2CCCCC2C(=O)O)cc1` (stereo not shown), the “% Inhibition @ 10 uM” value is -0.969%.
`C(#Cc1ccccc1)CN1CCOCC1`: the “% Inhibition @ 10 uM” value is -3.32% and -1.97%.
For `CSCCC(Nc1ncnc2sc3c(c12)CCCC3)C(=O)O` (stereo not shown), the “% Inhibition @ 10 uM” value was -2.7%.
For the compound `CC(=O)N1CCN(CCCCCCC=C(C)C)CC1`, the “% Inhibition @ 10 uM” value is -3.57%.
For the compound `Nc1cccc(-n2nncc2C23CC4CC(CC(C4)C2)C3)c1`, the “% Inhibition @ 10 uM” value was 2.05%.
The figure for `Cc1cc(C)c(C#N)c(SCC(=O)Nc2ccc(S(=O)(=O)Nc3onc(C)c3C)cc2)n1` is -2.77%; for `CC1=C(C(=O)Nc2ncccc2C)C(c2cccc(Cl)c2Cl)C2=C(O)CCCC2=N1` (stereo not shown) it is -6.36%; for `CCOC(=O)C1=C(N)OC2=C(C(=O)CC(C)(C)C2)C1c1cc(CSc2nnnn2C)cs1` (stereo not shown) it is 1.84%.
Consider `COc1cc2c(NCc3ccccc3)cc(O)c(CC(=O)Nc3ccccc3)c2cc1OC`, for which the “% Inhibition @ 10 uM” value is 66.3%.
Consider `O=C(N[C@@H](Cc1ccc2ccccc2c1)C(=O)N[C@@H](CCc1ccccc1)C(=O)CO)C1CCNCC1`, for which the “% Inhibition @ 10 uM” value is -5.64%.
As for `Cc1cc(Cl)ccc1OCC(=O)Nc1ccc(F)cc1`, the “% Inhibition @ 10 uM” value was 0.316%.
The same measure for `CC(C)(C)CC(=O)Nc1sc2c(c1C#N)CCCCC2`: 2.26%; for `COc1ccc(-c2cn(/N=C/c3ccc(Cl)cc3Cl)c(N)n2)cc1`: -0.441%.
The same measure for `Cc1ccc(-n2cnc3cc(NC(=O)c4ccco4)ccc32)cc1`: 0.13%; for `CC(NC(=O)c1ccccc1OCC(=O)N1CCc2ccccc21)c1ccccc1` (stereo not shown): 0.245%; for `N#Cc1ccc(Oc2ccc(NC(=O)c3ccccc3Cl)cc2)cc1`: 4.54%.
On to `Cc1ccc(C(O)c2coc3ccc(O)c(CN(C)C)c23)cc1` (stereo not shown), for which the “% Inhibition @ 10 uM” value amounted to 0.774%.
Consider `CS(=O)(=O)N1CCCC(C(=O)NCCN2CCC(Cc3ccccc3)CC2)C1` (stereo not shown), for which the “% Inhibition @ 10 uM” value was 3.79%.
The figure for `Cc1ccc(Cl)cc1NC(=O)Cn1cnc2c1c(=O)n(C)c(=O)n2C` is -3.69%; for `Cc1ccc(-n2ncc3c(NCCCOC(C)C)ncnc32)cc1C` it is 4.15%; for `O=C(NCCc1ccccc1)C(F)(F)C(F)(F)C(F)(F)C(=O)NCCc1ccccc1` it is -5.36%.
